In the supplement of paper PMC8728848:
The list shows a part of the results.

B1: DC-SIGNR (Homo sapiens), Q9H2X3 (protein)
chain: QVSKVPSSLSQEQSEQDAIYQNLTQLKAAVGELSEKSKLQEIYQELTQLKAAVGELPEKSKLQEIYQELTRLKAAVGELPEKSKLQEIYQELTRLKAAVGELPEKSKLQEIYQELTRLKAAVGELPEKSKLQEIYQELTELKAAVGELPEKSKLQEIYQELTQLKAAVGELPDQSKQQQIYQELTDLKTAFERLCRHCPKDWTFFQGNCYFMSNSQRNWHDSVTACQEVRAQLVVIKTAEEQNFLQLQTSRSNRFSWMGLSDLNQEGTWQWVDGSPLSPSFQRYWNSGEPNNSGNEDCAEFSGSGWNDNRCDVDNYWICKKPAACFRDE
B2: DC-SIGN (Homo sapiens), Q9NNX6 (protein)
chain: QVSKVPSSISQEQSRQDAIYQNLTQLKAAVGELSEKSKLQEIYQELTQLKAAVGELPEKSKLQEIYQELTRLKAAVGELPEKSKLQEIYQELTWLKAAVGELPEKSKMQEIYQELTRLKAAVGELPEKSKQQEIYQELTRLKAAVGELPEKSKQQEIYQELTRLKAAVGELPEKSKQQEIYQELTQLKAAVERLCHPCPWEWTFFQGNCYFMSNSQRNWHDSITACKEVGAQLVVIKSAEEQNFLQLQSSRSNRFTWMGLSDLNQEGTWQWVDGSPLLPSFKQYWNRGEPNNVGEEDCAEFSGNGWNDDKCNLAKFWICKKSAASCSRDEEQFLSPAPATPNPPPA

Tests used:
Experiment in all cases: glycan array binding signal (z-score within array); higher = stronger binding
Details in all cases: glycan notation: IUPAC condensed, linker removed
Glc(a1-2)Glc = target: Glc(a1-2)Glc
Outline: (§1)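 From the Consortium for Functional Glycomics database, 3228 arrays were curated, keeping only those whose protein sequence was available. Binding is given as a within-array Z-score averaged across arrays sharing a protein sequence and across linkers. Negative Z-scores can be read as non-binding.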

Glc(a1-2)Glc(a1-2)Glc = target: Glc(a1-2)Glc(a1-2)Glc
Outline: as §1

[1] = target: Glc(a1-2)Glc(a1-2)Glc(a1-2)Glc
Outline: as §1

[2] = target: Glc(a1-2)Glc(a1-2)Glc(a1-2)Glc(a1-2)Glc
Outline: as §1

[3] = target: Glc(a1-2)Glc(a1-2)Glc(a1-2)Glc(a1-2)Glc(a1-2)Glc
Outline: as §1

[4] = target: Glc(a1-2)Glc(a1-2)Glc(a1-2)Glc(a1-2)Glc(a1-2)Glc(a1-2)Glc
Outline: as §1

[5] = target: Glc(a1-2)Glc(a1-2)Glc(a1-2)Glc(a1-2)Glc(a1-2)Glc(a1-2)Glc(a1-2)Glc
Outline: as §1

[6] = target: Glc(a1-2)Glc(a1-2)Glc(a1-2)Glc(a1-2)Glc(a1-2)Glc(a1-2)Glc(a1-2)Glc(a1-2)Glc
Outline: as §1

Glc(b1-2)Glc = target: Glc(b1-2)Glc
Outline: as §1

Glc(b1-2)Glc(b1-2)Glc = target: Glc(b1-2)Glc(b1-2)Glc
Outline: as §1

[7] = target: Glc(b1-2)Glc(b1-2)Glc(b1-2)Glc
Outline: as §1

[8] = target: Glc(b1-2)Glc(b1-2)Glc(b1-2)Glc(b1-2)Glc
Outline: as §1

[9] = target: Glc(b1-2)Glc(b1-2)Glc(b1-2)Glc(b1-2)Glc(b1-2)Glc
Outline: as §1

[10] = target: Glc(b1-2)Glc(b1-2)Glc(b1-2)Glc(b1-2)Glc(b1-2)Glc(b1-2)Glc
Outline: as §1

[11] = target: Glc(b1-2)Glc(b1-2)Glc(b1-2)Glc(b1-2)Glc(b1-2)Glc(b1-2)Glc(b1-2)Glc
Outline: as §1

[12] = target: Glc(b1-2)Glc(b1-2)Glc(b1-2)Glc(b1-2)Glc(b1-2)Glc(b1-2)Glc(b1-2)Glc(b1-2)Glc
Outline: as §1

[13] = target: Glc(b1-2)Glc(b1-2)Glc(b1-2)Glc(b1-2)Glc(b1-2)Glc(b1-2)Glc(b1-2)Glc(b1-2)Glc(b1-2)Glc
Outline: as §1

[14] = target: Glc(b1-2)Glc(b1-2)Glc(b1-2)Glc(b1-2)Glc(b1-2)Glc(b1-2)Glc(b1-2)Glc(b1-2)Glc(b1-2)Glc(b1-2)Glc
Outline: as §1

[15] = target: Glc(b1-2)Glc(b1-2)Glc(b1-2)Glc(b1-2)Glc(b1-2)Glc(b1-2)Glc(b1-2)Glc(b1-2)Glc(b1-2)Glc(b1-2)Glc(b1-2)Glc
Outline: as §1

[16] = target: Glc(b1-3)Glc(b1-3)Glc(b1-3)Glc(b1-3)Glc(b1-3)Glc(b1-3)Glc(b1-3)Glc(b1-3)Glc(b1-3)Glc(b1-3)Glc(b1-3)Glc(b1-3)Glc
Outline: as §1

Row | Binder | glycan array binding signal (z-score) (Glc(a1-2)Glc) | glycan array binding signal (z-score) (Glc(a1-2)Glc(a1-2)Glc) | glycan array binding signal (z-score) [1] | glycan array binding signal (z-score) [2] | glycan array binding signal (z-score) [3] | glycan array binding signal (z-score) [4] | glycan array binding signal (z-score) [5] | glycan array binding signal (z-score) [6] | glycan array binding signal (z-score) (Glc(b1-2)Glc) | glycan array binding signal (z-score) (Glc(b1-2)Glc(b1-2)Glc) | glycan array binding signal (z-score) [7] | glycan array binding signal (z-score) [8] | glycan array binding signal (z-score) [9] | glycan array binding signal (z-score) [10] | glycan array binding signal (z-score) [11] | glycan array binding signal (z-score) [12] | glycan array binding signal (z-score) [13] | glycan array binding signal (z-score) [14] | glycan array binding signal (z-score) [15] | glycan array binding signal (z-score) [16]
1 | B1 | -1.03 | -1.03 | -1.03 | -1.03 | -0.675 | -0.195 | -0.127 | 0.43 | -1.03 | -1.03 | -0.961 | 0.29 | 1.24 | 0.862 | 0.872 | 1.64 | 0.741 | 1.57 | 1.48 | -0.981
2 | B2 | -1.08 | -1.23 | -0.993 | -0.838 | -1.03 | -0.81 | -0.586 | -0.6 | 0.173 | 0.114 | 0.562 | 1.1 | 2.48 | 1.09 | 0.65 | 1.4 | 0.355 | 0.388 | 0.149 | -1.29
